From PubChem BioAssay AID651554 (The Scripps Research Institute Molecular Screening Center, 2012)
For part of its entries the source gives two or more results. They are shown here; other results are not.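 How the source made its calls: active means either panel giving IC50 at or below 10 µM; inactive means both panels giving IC50 over 10 µM.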 An entry can have further records. Values that stand side by side are repeated measurements across runs, samples, wells, individuals or studies. Brackets tell where a record comes from. The letters are not those of the source and start again with each entry.

Molecular target: Melanocortin receptor 4 (Homo sapiens) (UniProt P32245)
Sequence of UniProt P32245 (P32245 whole entry, looked up): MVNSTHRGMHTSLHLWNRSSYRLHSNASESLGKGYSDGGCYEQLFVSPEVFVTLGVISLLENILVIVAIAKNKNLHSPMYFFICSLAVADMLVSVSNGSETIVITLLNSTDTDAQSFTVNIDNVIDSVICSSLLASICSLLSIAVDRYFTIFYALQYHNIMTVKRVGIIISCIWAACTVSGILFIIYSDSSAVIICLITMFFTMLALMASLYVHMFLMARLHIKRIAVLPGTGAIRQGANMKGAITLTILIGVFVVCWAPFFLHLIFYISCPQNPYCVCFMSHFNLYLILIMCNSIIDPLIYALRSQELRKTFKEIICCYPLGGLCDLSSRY
Experiment: inhibition of MC4R-driven cAMP production – cell-based, FRET, biased ligands, late-stage follow-up (AID 651554)
Conditions: U2OS MC4R, Melanotan II cAMP TR-FRET antagonist; run 1

With `CCC1CCCCN1S(=O)(=O)c1ccc(NC(=O)c2nc(S(C)(=O)=O)ncc2Cl)cc1` (stereo unspecified) as the compound, how does the IC50 read?
The IC50 was 6.37 µM [sample A] and inactive [sample B].
